The list shows a part of the results.
Test system: PfHDP1 homeodomain (GST-tagged)
Assay: gcPBM binding intensity (ln(normalized median fluorescence intensity)); higher = stronger DNA binding
Outline: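 In this array assay, P. falciparum DNA-binding domains with a GST tag, expressed in E. coli, were applied for 1 h to primer-extended double-stranded 36-bp intergenic genomic probes and negative controls on an Agilent 4 × 180k array. Bound protein was visualised with Alexa488 anti-GST antibody at 488 nm. Binding intensity is the highest Masliner-normalised natural-log median intensity across replicate spots of either probe orientation.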

Sequence | gcPBM binding intensity (ln)
ATTTTTTTATTTGATTGTACAATTTTCTTTCAAAAT [XGTACX_site2902] | 7.19
TATAATATAATATATATATATATATATATATAAGAA [CACACA_negctrl_site78] | 6.99
TTCATATAAATACATGCACACAAAAATATCAATACA [CACACA_site8753] | 8.91
ATATATTTTATTACCAGTACATATATTAAAATAATA [XGTACX_site8440] | 6.38
ATCTATTTCTATTGTTGTACTTATTTTTCATTGTTT [XGTACX_site6942] | 7.18
CGATTACTAATTTTTAGTACATATAATCAATATGTA [XGTACX_site7857] | 5.83
ATGTAGCCTTACGCTTGTACGAATATCTTAATTTTT [XGTACX_site4331] | 6.09
AGGGTTACAAGAGGAACACACAAAAAAATAAATAAA [CACACA_site1436] | 6.86
AAAAAAAATAGACACACACACATACACATAAATATA [CACACA_site7742] | 6.93
TTTATATTACAATAATATATTAAAAAATAAAATATA [TGCATGCA_negctrl_site18] | 6.17
TTTGTAATAAACTACTTTTTTTTTTTTTTTTTTTTT [CACACA_negctrl_site571] | 6.72
ATTAAATCTATATATACACACATGTTTGGTATATTC [CACACA_site2657] | 6.88
AAACAAAATGGTAACACACACATATATAAATATGTA [CACACA_site6994] | 6.33
TAAGAAATAAATAGTACACACATAGACACCCACCCA [CACACA_site8429] | 7.64
CCTAAATATTTTTTATGTACATATTTATCTAAATTT [XGTACX_site6835] | 6.87
TGAGGAAACATGAGATGTACATATAAATTTTTTTTT [XGTACX_site2595] | 5.93
ATAGAAATTATAAATAGTACATAATAAAAATGAGCA [XGTACX_site822] | 6.73
ATTAAAGAGATATATACACACATTATGGGGGAATAA [CACACA_site6226] | 7.13
TATTATAAAGAAATTACACACATGCAATGAAAAAAA [CACACA_site1697] | 6.82
TCGTTTCCTTAAAATTGTACTTTTTTTTTTTTTTTT [XGTACX_site64] | 6.54
TAATGATAAATACATACACACAAAAAATAATATATA [CACACA_site2576] | 6.86
TGTTATTATTTGTACACACACATATAGATCCTTGTT [CACACA_site7667] | 7.07

Sequence | gcPBM binding intensity (ln)
AGAGTATATATATATGCATGCATATCTCATATTTAT [TGCATGCA_site509] | 6.71
AATGTGGTATTTACAAAAAGGCTTTATACTTAAAAA [XGTACX_negctrl_site566] | 6.24
TGATTATCCTATATATATTTCATAATGGAAAAAAAT [TGCATGCA_negctrl_site444] | 6.3
AAAAATAGTCTTCTTGCACTTTTTAATTTATTTTAA [CACACA_negctrl_site1322] | 6.76
TATATTTTGTTTTTGTGTACATATTGGTAGTTATTT [XGTACX_site7659] | 6.95
CTTTTCATCTTCTTAACACACAAAAAAAAAAAAAAA [CACACA_site3886] | 6.45
TGGGAATAACGACACACACACACACGGATATAAATA [CACACA_site7633] | 7.01
AAAAACGATTAATGTGTACACACATAGTTATAAACA [CACACA_site8659] | 7.04
TTTTTTTTTTTTTAATGTACAAATATGGTGACAAAA [XGTACX_site8709] | 6.63
ATATATATATATATATGTACATATATTTTCTTTTTG [XGTACX_site6017] | 9.35
TTGTTCTATAATTATACATGCATTAACAGAGTAAAA [TGCATGCA_site909] | 7.99
AGGATAACATACAAAAGTACATAAAACTAAAAAAAC [XGTACX_site26] | 7.02
AAGAAAATATAACAAAGTAAAAACATATTATATATA [TGCATGCA_negctrl_site248] | 6.12
TATATATATTTTTGAAGTACTTATTACACTAGCATT [XGTACX_site8965] | 6.74
AATGTGCTCGCTATTACACACTCATTGGGATAAAAT [CACACA_site8627] | 7.89
AGTAACAATTATTATGCATGTACAAATAATCATTTT [TGCATGCA_site867] | 6.45
TTTATTAAACTTGACACACACACACCCACATATATA [CACACA_site760] | 6.9
ATATTATATAGAAACACACATACACATGTAAATATA [CACACA_site2037] | 6.99
ATCTTATATTATCACACACACACGCACAAAACAGAA [CACACA_site1463] | 7.52
ATATAGAAAATGCATACACACTTTATATATATATTT [CACACA_site4658] | 6.43
TAATTATTTCGTATATTTGAATGGTACATGCTTATA [CACACA_negctrl_site1178] | 6.24

Source: the supplement of paper PMC11417369
